Publication PMC4336329 (PLoS ONE, 2015)
The whole screen tested about 310,000 compounds, of which about 2,200 (0.71%) showed an effect of 50% or more. The effect is printed as a negative number. Some of the results follow.

target: human ether-à-go-go-related gene (hERG) potassium channel (human, UniProt Q12809); assay: primary screen, population patch clamp on CHO cells stably expressing hERG
Sequence (Q12809 whole entry, looked up): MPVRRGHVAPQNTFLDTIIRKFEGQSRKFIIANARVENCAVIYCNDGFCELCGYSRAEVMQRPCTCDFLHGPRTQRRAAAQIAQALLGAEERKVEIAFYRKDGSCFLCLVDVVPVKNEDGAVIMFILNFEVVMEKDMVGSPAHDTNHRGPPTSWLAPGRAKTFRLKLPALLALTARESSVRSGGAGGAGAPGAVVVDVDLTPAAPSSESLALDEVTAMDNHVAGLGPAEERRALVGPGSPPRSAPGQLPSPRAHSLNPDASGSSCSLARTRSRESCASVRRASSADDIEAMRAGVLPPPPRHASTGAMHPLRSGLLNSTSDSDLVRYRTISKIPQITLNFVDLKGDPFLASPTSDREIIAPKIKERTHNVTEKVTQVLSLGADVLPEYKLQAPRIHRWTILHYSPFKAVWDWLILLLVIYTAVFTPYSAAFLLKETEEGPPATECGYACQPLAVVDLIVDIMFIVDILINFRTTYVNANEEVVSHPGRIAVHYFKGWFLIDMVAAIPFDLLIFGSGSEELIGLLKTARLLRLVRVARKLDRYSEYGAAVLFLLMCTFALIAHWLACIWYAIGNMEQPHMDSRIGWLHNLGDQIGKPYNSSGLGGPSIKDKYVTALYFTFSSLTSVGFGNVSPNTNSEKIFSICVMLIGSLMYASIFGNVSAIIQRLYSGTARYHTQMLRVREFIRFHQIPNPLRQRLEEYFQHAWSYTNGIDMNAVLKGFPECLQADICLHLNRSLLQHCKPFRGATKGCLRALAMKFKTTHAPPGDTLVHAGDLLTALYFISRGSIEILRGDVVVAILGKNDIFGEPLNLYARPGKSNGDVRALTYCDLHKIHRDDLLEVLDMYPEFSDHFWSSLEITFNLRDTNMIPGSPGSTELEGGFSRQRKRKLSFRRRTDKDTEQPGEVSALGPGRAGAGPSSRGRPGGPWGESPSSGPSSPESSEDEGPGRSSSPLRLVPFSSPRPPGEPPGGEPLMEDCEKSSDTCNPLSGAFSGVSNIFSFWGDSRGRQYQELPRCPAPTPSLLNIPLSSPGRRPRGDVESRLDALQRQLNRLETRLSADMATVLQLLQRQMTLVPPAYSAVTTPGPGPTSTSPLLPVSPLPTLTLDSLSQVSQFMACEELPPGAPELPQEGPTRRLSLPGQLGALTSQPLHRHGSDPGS

Point of comparison: `O=C(Nc1cccc(F)c1)c1ccc(CSc2ccccc2)o1`, “hERG current change (%, negative = inhibition) at 1uM” value 11.5%. Against it:
- CCOC(=O)c1sc(NC(=O)c2ccc3nc[nH]c3c2)nc1C — higher, 13.4%
- CCCCc1cc(=O)oc2cc(C)cc(O)c12 — lower, 3.43%
- CCn1nccc1C(=O)NC1=C(C#N)CCC1 — higher, 17.2%
- O=C(CCCn1nnc2ccccc2c1=O)N[C@H](C(=O)O)c1ccccc1 — higher, 13.3%
- CC1CCCCN1C(=O)c1cc2ccccc2cc1O (stereo not shown) — higher, 12.3%
- CC1(C)Cc2cccc(OCC(=O)OCC(=O)Nc3ccc(C(N)=O)cc3)c2O1 — lower, -8.66%
- Cc1c(OC(=O)c2ccc([N+](=O)[O-])cc2)c2c(c[n+]1C)COC(C)(C)OC2.[I-] — lower, 7.45%
- O=C(Nc1ccccn1)c1ccc2c(=O)n3c(nc2c1)CCCCC3 — lower, 0.0986%
- COc1ccccc1OCCNC(=O)c1cc(C2CC2)nc2c1cnn2C(C)C — lower, 1.77%
- Cc1ccc(NC(=O)C2(c3ccccc3)CCCC2)nc1 — lower, 4.05%
- O=C(Cn1cc(C(F)(F)F)cc(Cl)c1=O)NCC1COc2ccccc2O1 (stereo not shown) — the same, 11.5%
- Cc1ccc(CNC(=O)c2ccc(N3CCC4(CC3)CC(c3ccccc3)=NO4)c([N+](=O)[O-])c2)cc1 — lower, 6.09%
- CCOc1ccc2nc(CN3CCN(Cc4ccccc4OCC)C(CCO)C3)ccc2c1 (stereo not shown) — lower, -14.9%
- Cc1ccc(C2=NN(CC(=O)NCc3cccnc3)C(=O)CC2)cc1 — lower, 4.83%
- COc1ccc(C2C(C(=O)O)CCC(=O)N2c2ccc(C)cc2)cc1OC (stereo not shown) — lower, 8.3%
- O=C(c1ccccc1)C1CCN(C(=O)c2cccs2)CC1 — lower, 2.32%
- Clc1ccc(-c2nn3c(C4COc5ccccc5O4)nnc3s2)cc1 (stereo not shown) — higher, 13.3%
- O=C(NCCCN1CCCCCC1)C1CC(=O)N(CCc2ccccc2)C1 (stereo not shown) — lower, 8.62%
- CCC1(CC)C(=O)NC(=O)NC1=NCCc1ccc(O)cc1 — lower, 5.05%
- COc1ccccc1NC(=O)/C=C1\NC(=O)CS1 — lower, 6.78%
- O/N=C\c1cnc(N2CCN(c3ccccc3)CC2)s1 — the same, 11.5%
- O=C1CC(C(=O)Nc2ccc(Br)cc2)S/C(=N\N=C\c2ccco2)N1 (stereo not shown) — lower, 11.3%
- O=c1[nH]c(=S)n(Cc2ccc(F)cc2)c(O)c1/C=N/N1CCCCC1 — lower, 8.67%
- Nc1cc(OC(=O)c2ccco2)nn1S(=O)(=O)c1ccc(F)cc1 — higher, 13.4%
